Assay results reported in patent US9763922B2 (priority 2014, dated 2017).

What follows are compounds tested on MYC (assay: cells). Settings: Homo sapiens, MV4-11, 4 h, read-out: Myc IC50 (μM).

| Compound | IC50 [µM] |
| --- | --- |
| CC(=O)N1CCc2c(c(N3CCc4cc(-c5cn(C)nc5C(F)(F)F)ccc43)nn2C)C1 [Example 180, 1-[1-methyl-3-[5-[1-methyl-3-(trifluoromethyl)pyrazol-4-yl]indolin-1-yl]-6,7-dihydro-4H-pyrazolo[4,3-c]pyridin-5-yl]ethanone] | 0.549 |
| CC(=O)N1CCc2c(c(N3CCCc4cc(-c5cnn(C)c5)c(C5COC5)cc43)nn2C2CCOCC2)C1 [Example 355, 1-[3-[6-(1-methylpyrazol-4-yl)-7-(oxetan-3-yl)-3,4-dihydro-2H-quinolin-1-yl]-1-tetrahydropyran-4-yl-6,7-dihydro-4H-pyrazolo[4,3-c]pyridin-5-yl]ethanone] | 0.07 |
| CC(=O)N1CCc2c(c(N3CCc4c3ccc(-c3cnn(C)c3)c4F)nn2C)C1 [Example 216, 1-[3-[4-fluoro-5-(1-methylpyrazol-4-yl)indolin-1-yl]-1-methyl-6,7-dihydro-4H-pyrazolo[4,3-c]pyridin-5-yl]ethanone] | 1.28 |
| CNC(=O)N1CCc2c(c(N3CCCc4cc(-c5cnn(C)c5)c(S(C)(=O)=O)cc43)nn2C2CCOCC2)C1 [Example 261, N-methyl-3-[6-(1-methylpyrazol-4-yl)-7-methylsulfonyl-3,4-dihydro-2H-quinolin-1-yl]-1-tetrahydropyran-4-yl-6,7-dihydro-4H-pyrazolo[4,3-c]pyridine-5-carboxamide] | 0.029 |
| CC(=O)N1CCc2c(c(N3CCCc4cc(-c5ccc(N(C)C)nc5)c(C(F)F)cc43)nn2C2CCOCC2)C1 [Example 312] | 0.017 |
| CC(=O)N1CCc2c(c(N3CC(C)c4cc(-c5cnn(C)c5)ccc43)nn2C)C1 (stereo not shown) [Example 192, 1-[1-methyl-3-[3-methyl-5-(1-methylpyrazol-4-yl)indolin-1-yl]-6,7-dihydro-4H-pyrazolo[4,3-c]pyridin-5-yl]ethanone] | 0.745 |
| CC(=O)N1CCc2c(c(Nc3ccc(-c4cnn(C)c4)cc3F)nn2[C@@H]2CCOC2)C1 [Example 299, 1-[3-[2-fluoro-4-(1-methylpyrazol-4-yl)anilino]-1-[(3R)-tetrahydrofuran-3-yl]-6,7-dihydro-4H-pyrazolo[4,3-c]pyridin-5-yl]ethanone] | 0.77 |
| CC(=O)N1CCc2c(c(Nc3cccc(Br)c3)nn2CC2CC2)C1 [Example 61, 1-(3-((3-bromophenyl)amino)-1-(cyclopropylmethyl)-6,7-dihydro-1H-pyrazolo[4,3-c]pyridin-5(4H)-yl)ethanone] | 0.59 |
| CC(=O)N1CCc2c(c(N(C)c3ccc(-c4cnn(C)c4)cc3)nn2C)C1 [Example 228, 1-[1-methyl-3-[N-methyl-4-(1-methylpyrazol-4-yl)anilino]-6,7-dihydro-4H-pyrazolo[4,3-c]pyridin-5-yl]ethanone] | > 4 |
| CC(=O)N1CCc2c(c(Nc3cccc(C(=O)NC(C)C)c3)nn2CC2CC2)C1 [Example 218, 1-[3-[6-(difluoromethyl)-5-(1-methylpyrazol-4-yl)indolin-1-yl]-1-(oxetan-3-yl)-6,7-dihydro-4H-pyrazolo[4,3-c]pyridin-5-yl]ethanone] | 0.5 |
| CC(=O)N1CCc2c(c(Nc3ccc(C4=CCCCC4)cc3)nn2CC2CC2)C1 [Example 99, 1-[3-[3-ethyl-6-(1-methylpyrazol-4-yl)-3,4-dihydro-2H-quinolin-1-yl]-1-tetrahydrofuran-3-yl-6,7-dihydro-4H-pyrazolo[4,3-c]pyridin-5-yl]ethanone] | 1.42 |
| Cn1cc(-c2cc(F)c(Nc3nn(C4CCOCC4)c4c3CN(C(N)=O)CC4)cc2C(F)F)cn1 [Example 256, N-methyl-3-[6-(1-methylpyrazol-4-yl)-7-(trifluoromethoxy)-3,4-dihydro-2H-quinolin-1-yl]-1-tetrahydropyran-4-yl-6,7-dihydro-4H-pyrazolo[4,3-c]pyridine-5-carboxamide] | 0.07 |
| CC(=O)N1CCc2c(c(Nc3ccc(-c4ccccn4)cc3)nn2CC2CC2)C1 [Example 104, (S, S)-1-(5-acetyl-1-tetrahydrofuran-3-yl-6,7-dihydro-4H-pyrazolo[4,3-c]pyridin-3-yl)-4-methyl-6-(1-methylpyrazol-4-yl)-3,4-dihydro-2H-quinoline-7-carbonitrile] | 0.42 |
